Data reported in US20090130676A1 (GENERAL HOSPITAL, published 2009).

Target: T1, TrxA-peptide 3 (E. coli, UniProt P0AA25 1-33 = thioredoxin; P0AA25 36-109 = thioredoxin, limits assumed)
T1 construct: Insert of the library plasmid moved into pAL-TrxA and expressed in E. coli
Assay: coprecipitation from bacterial extract with Gst beads, Western blot with anti-TrxA antibody

binding result: no binding
B1: Gst (enzyme)
chain: not shown
notes: also called Gst beads
